# Data taken from PubChem BioAssay AID1814 (Broad Institute, 2009).
# Hit rate of the full screen: of about 300,000 compounds, about 22,000 (7.3%) were called active. This list was built around the results that the source calls inconclusive (neither active nor inactive); the mix of calls is not that of the screen. No stated cut-off is given here; in the data, active means activity score below about -60%; inconclusive means mostly about -28% to -61%; inactive means positive scores.
# Test: Activators via SNCA 5'UTR binding, MLPCN (AID 1814)
# Conditions: alpha-synuclein 5'UTR reporter, activators screen; hits give low values; tested at 7.5 µM
row,SMILES,activity score
1,CC1=C([N+](=O)[O-])C(c2cccc(Br)c2)C2=C(N1)c1ccccc1C2=O (stereo not drawn),inactive: 89.8%
2,CC(C)(C)C1CCc2c(C(=O)N/N=C/c3cccs3)csc2C1 (stereo not drawn),active: -97.2%
3,Oc1ccc(CN2CCN(c3ccccc3)CC2)c2cccnc12,inactive: 79.5%
4,CCC1(CC)Nc2ccccc2C(=O)N1c1ccc(OC)cc1,inconclusive: -55.5%
5,Cc1ccc(C(c2nnnn2C2CCCC2)N2c3ccccc3CC2C)cc1 (stereo not drawn),inconclusive: -59.1%
6,Cc1ccc(C(=O)NC(=S)Nc2cccc(-c3nc4ccccc4s3)c2)cc1,inconclusive: -48.7%
7,Cc1ccc(C(=O)Nc2ccccc2OC(F)F)cc1,active: -62.5%
8,COc1ccc(C(=O)N=C2CCC(C#N)=C3c4cc(OC)c(OC)cc4CCN23)cc1,inactive: 54.6%
9,COC(=O)CN1C(c2ccc(Cl)cc2)=Nc2ccc(Cl)cc2C1c1ccccc1 (stereo not drawn),inconclusive: -51.1%
10,COc1ccccc1N1CCN(/N=C/c2ccc([N+](=O)[O-])cc2)CC1,active: -159%
11,Cc1ccc(-c2nc3cc(Cl)ccc3o2)cc1,inconclusive: -60.8%
12,COC(=O)c1ccc(COc2cccc(OC)c2)o1,inconclusive: -38.3%
13,CC1=Nc2cc(C(=O)NCc3ccco3)ccc2Sc2ccc(C)cc21,inactive: 101%
14,COc1cc(/C=C2\CC/C(=C\c3cc(OC)c(OC)c(OC)c3)C2=O)cc(OC)c1OC,inconclusive: -55.1%
15,O=C(c1ccco1)N1CCN(c2ccc(Cl)cc2)CC1,active: -130%
16,Cc1ccc(/C=C2\SC(=S)N(CCCC(=O)NNC(=O)c3ccccc3O)C2=O)cc1,inactive: 107%
17,O=C(Nc1cccc([N+](=O)[O-])c1)c1ccc2snnc2c1,inconclusive: -38.9%
18,O=C1C2C3C=CC(C4CC34)C2C(=O)N1/N=C/c1ccc(-c2ccccc2[N+](=O)[O-])o1 (stereo not drawn),inconclusive: -39.1%
19,c1ccc(C(CN2CCOCC2)c2ccccc2)cc1,inconclusive: -32.6%
20,O=C(c1ccc2nc3ccccc3c(=O)n2c1)N1CCN(Cc2ccc3c(c2)OCO3)CC1,inconclusive: -51.6%
21,N=c1c2c(n(Cc3cccc(Cl)c3)c3c1CCC3)CCCC2,inactive: 54.6%
22,COc1ccc(-c2[nH]nc3c2C(c2ccccc2OC(=O)N2CCOCC2)C(C#N)=C(N)O3)cc1 (stereo not drawn),inconclusive: -60.3%
23,O=C(CC(c1ccccc1)c1ccccc1)Nc1ccc2c(c1)OCCO2,inconclusive: -53.6%
24,O=[N+]([O-])c1cccc(-c2ccc(/C=N/Nc3nc(N4CCCCC4)nc(N4CCCCC4)n3)o2)c1,inactive: 72.5%

row,SMILES,activity score
1,COC(=O)c1c(NC(=O)c2nc3ccccc3s2)sc2c1CC(C)(C)NC2(C)C,inactive: 104%
2,O=C(N/N=C/C(Cl)=C\c1ccccc1)c1cnccn1,inconclusive: -57.3%
3,COc1cccc(/C=N/NC(=O)c2cc3cc([N+](=O)[O-])ccc3s2)c1O,inactive: 107%
4,O=C(CCl)Nc1ccc2c(c1)OCO2,active: -89.6%
5,Cc1nnc(SCc2cccc(CSc3nnc(C)s3)c2)s1,inconclusive: -57.7%
6,O=C(CNC(=S)NC(=O)c1ccc(F)cc1)c1ccccc1,inconclusive: -57.1%
7,Cc1nc2cc(-c3ccccc3)sc2c(=O)n1N,inactive: 111%
8,O=C(Nc1nncs1)c1cc2c(s1)CCC2,active: -132%
9,Cc1csc(NC(=O)/C=C/c2ccc(C)o2)n1,inconclusive: -49.3%
10,O=C(c1cc([N+](=O)[O-])ccc1N1CCOCC1)N1CCN(c2ccccc2)CC1,inactive: 91.4%
11,O=C(O)c1ccc(NC(=O)c2cc3ccccc3o2)cc1,inconclusive: -58.9%
12,CN1CCN(c2ccc(S(=O)(=O)N3CCCCC3)cc2NC(=O)Cc2c(F)cccc2Cl)CC1,inconclusive: -58.3%
13,N=C1c2c(cc(=O)n3c2[nH]c2ccccc23)CN1CCN1CCOCC1,inconclusive: -48.9%
14,CCN(CC)S(=O)(=O)c1cccc(C(=O)Nc2nc3cc4c(cc3s2)OCCO4)c1,inconclusive: -57.3%
15,CCN1CCN(CCNC(=O)C2CCN(Cc3nc(-c4ccc(Cl)cc4)oc3C)CC2)CC1,inconclusive: -48.8%
16,COc1ccc(-n2ncc3c(N4CCc5ccccc54)ncnc32)cc1,active: -240%
17,CCc1nnc(NC(=O)OCc2ccccc2)s1,inconclusive: -49.8%
18,Cc1nc2nc[nH]n2c(=O)c1NC(=O)c1c(-c2ccccc2Cl)noc1C,inconclusive: -34.1%
19,O=C(NCc1ccc2c(c1)CCO2)Nc1ccccc1,inconclusive: -56.3%
20,O=C(NCCc1ccccc1)c1ccc(Cl)c(S(=O)(=O)N2CCCC2)c1,active: -67.1%
21,O=C(Nc1ccc2ccccc2c1)c1ccc(Br)o1,inconclusive: -57.2%
22,CCCCC1CCC(c2nc(-c3ccccn3)no2)CC1 (stereo not drawn),inactive: 96.6%
23,Cc1ccc(N2C(=O)/C(=C\c3ccco3)SC2=S)cc1,inconclusive: -38.8%
24,CCOC(=O)N1CCN(S(=O)(=O)c2ccc(C(=O)N(CCN(C)C)c3nc4ccc(CC)cc4s3)cc2)CC1,inconclusive: -56.1%

row,SMILES,activity score
1,COc1cc(C)ccc1OCc1cc(C(=O)N2CCC(c3ccc(F)cc3)C2)no1 (stereo not drawn),active: -175%
2,O=C(Nc1ccccc1N1CCCCC1)c1ccc(-c2ccc(Cl)cc2)o1,inactive: 99.1%
3,COc1ccc(C2CC(=O)Oc3cc(O)cc(O)c32)cc1 (stereo not drawn),inconclusive: -44.4%
4,Cc1cc(N2CCCCC2)n2nc(C)c(-c3ccccc3)c2n1,inconclusive: -51.8%
5,Cc1cc(C)nc(N/N=C/C=C/c2ccccc2)n1,inconclusive: -55.4%
6,Cc1ccc2[nH]c(-c3ccccc3)cc(=O)c2c1,inactive: 88.6%
7,COCCCNC(=O)C(=O)NC1CCCCCC1,inconclusive: -49.8%
8,COc1cccc(CNc2ccc([N+](=O)[O-])c(NCC(=O)O)n2)c1,inconclusive: -34.8%
9,Cc1ccn(-c2ccc(NC(=O)c3cccs3)cc2)n1,active: -63%
10,Cc1csc2ncnc(N3CCN(C(=S)Nc4ccc(C(F)(F)F)cc4)CC3)c12,inactive: 55.9%
11,NC(=O)c1ccsc1NC(=O)COC(=O)c1ccccc1NCc1ccco1,inconclusive: -58.5%
12,Cc1ccc(Cc2cnc(NC(=O)C3CCCO3)s2)cc1 (stereo not drawn),inconclusive: -34.9%
13,COc1ccc(-c2cc(C)nc3c(-c4ccccc4)cnn23)cc1,inconclusive: -38.3%
14,C=CCn1c(SCC(=O)c2[nH]c(C)c(C(=O)OC)c2C)nc2scc(-c3ccc(OC)c(OC)c3)c2c1=O,inactive: 61.3%
15,Cc1noc(C)c1COc1cccc(C(=O)OCCOc2ccc(F)cc2)c1,inconclusive: -59.7%
16,COc1ccc2c(CC(=O)N3CCc4ccccc43)coc2c1,active: -105%
17,COC(=O)c1c(O)c2ccccc2[nH]c1=O,inconclusive: -47.4%
18,C/C(=N\Nc1ccc([N+](=O)[O-])cc1)c1ccc(O)cc1,active: -217%
19,COc1cc(OC)cc(C(=O)Nc2ccc(NC(=O)c3ccco3)c(Cl)c2)c1,inconclusive: -46%
20,CNc1ncc(C(=O)c2ccc(Br)cc2)s1,active: -108%
21,Cc1ccc(N/C(N)=N/c2nc(CSc3nnc(C)s3)cc(=O)[nH]2)c(C)c1,inactive: 83.5%
22,C=CCn1c(-c2cccnc2Cl)nc2cc(Cl)c(Cl)cc21,inconclusive: -50%
23,N=c1ccn2c(n1)OC1C(O)C(CO)OC12 (stereo not drawn),inactive: 112%
24,Cc1ccc2c(COC(=O)CNC(=O)c3ccccc3)cc(=O)oc2c1,inconclusive: -61%

row,SMILES,activity score
1,O=C(CCN1C(=O)COc2ccccc21)NCCCN1CCN(c2ccc(F)cc2)CC1,inconclusive: -57%
2,CCOC(=O)N=Nc1c2ccccc2c2nc3no[nH]c3nc12,inactive: 119%
3,COc1ccc(C(CC(=O)Nc2ccc(C)cc2)NC(=O)C(F)(F)F)cc1 (stereo not drawn),inconclusive: -57.8%
4,COc1ccc2c(c1OC)C(=O)N(c1cccc(NC(C)=O)c1)C2,inconclusive: -59.6%
5,Cc1ccccc1OCC(=O)Nc1cccc(C(=O)O)c1,inactive: 105%
6,Fc1cccc(Nc2ncnc3sccc23)c1,inconclusive: -30.1%
7,Cc1ccc(C)n1-c1cccc(C(=O)Nc2ccccc2)c1,inconclusive: -54.2%
8,Cc1cnc(NC(=O)C2CC=CCC2)s1 (stereo not drawn),inconclusive: -54.3%
9,CCCCCCN1C=CC(=C2C(=O)c3ccccc3C2=O)C=C1,inactive: 107%
10,Cc1cc(SCC(=O)N/N=C/c2ccc(O)cc2O)nc2ccccc12,inactive: 58.3%
11,Clc1ccc(-c2noc(COc3ccccc3)n2)cc1,inconclusive: -56.7%
12,Cc1ccc(-n2nc3c(N4CCC(C(=O)NCCc5ccccc5C)CC4)nnc(C)c3c2C)cc1,inactive: 71.7%
13,Cc1cc2nc(-c3ccc(SCc4ccc(C(=O)O)cc4)nc3)[nH]c2cc1C,active: -160%
14,O=C(Oc1ccc(Oc2ccccc2)cc1)N1CCC(O)CC1,inconclusive: -58.7%
15,O=C(Nc1ccccn1)c1onc2c1CCCC2,inactive: 96.4%
16,COc1ccc(NC(=O)Cc2c(F)cccc2Cl)cc1,inconclusive: -51.5%
17,O=C(CCc1ccccc1)NC(c1cccs1)c1cc(Cl)c2cccnc2c1O (stereo not drawn),inactive: 88.2%
18,O=[N+]([O-])c1ccc(/C=N/n2cnc3ccccc32)s1,inactive: 68.5%
19,Cc1[nH]n(-c2ccccc2)c(=O)c1/C=N/Nc1nncc(-c2ccccc2)n1,inactive: 91.2%
20,Clc1nc(CN2CCCCC2)nc2sc3c(c12)CCC3,inconclusive: -57.3%
21,Cc1cnn(-c2cc(N/N=C/c3ccccc3F)ncn2)c1,inconclusive: -61.4%
